The full ranking holds about 110,000 compounds; the median of “z-score” is about -0.1, and the highest 2% start at about 2. The list shows a part of the results. Active and inactive are the calls of the source.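 Rule for the calls: active = z-score in the third read window above 3 or below -3; inactive = the rest.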
The molecules below were run against Metabotropic glutamate receptor 8 (Rattus norvegicus) (UniProt P70579) (assay: mGluR8 Gi/Go-coupled signaling modulation – cell-based, rat, thallium flux, HTS, primary screen (AID 488969)). Conditions: HEK293 rat mGluR8, GIRK (G protein-gated inwardly rectifying potassium channel) thallium flux, FluoZin2; at 10 µM; stronger effect = higher value; submaximal glutamate (EC20) added with thallium.
UniProt P70579, sequence (P70579 whole entry, looked up): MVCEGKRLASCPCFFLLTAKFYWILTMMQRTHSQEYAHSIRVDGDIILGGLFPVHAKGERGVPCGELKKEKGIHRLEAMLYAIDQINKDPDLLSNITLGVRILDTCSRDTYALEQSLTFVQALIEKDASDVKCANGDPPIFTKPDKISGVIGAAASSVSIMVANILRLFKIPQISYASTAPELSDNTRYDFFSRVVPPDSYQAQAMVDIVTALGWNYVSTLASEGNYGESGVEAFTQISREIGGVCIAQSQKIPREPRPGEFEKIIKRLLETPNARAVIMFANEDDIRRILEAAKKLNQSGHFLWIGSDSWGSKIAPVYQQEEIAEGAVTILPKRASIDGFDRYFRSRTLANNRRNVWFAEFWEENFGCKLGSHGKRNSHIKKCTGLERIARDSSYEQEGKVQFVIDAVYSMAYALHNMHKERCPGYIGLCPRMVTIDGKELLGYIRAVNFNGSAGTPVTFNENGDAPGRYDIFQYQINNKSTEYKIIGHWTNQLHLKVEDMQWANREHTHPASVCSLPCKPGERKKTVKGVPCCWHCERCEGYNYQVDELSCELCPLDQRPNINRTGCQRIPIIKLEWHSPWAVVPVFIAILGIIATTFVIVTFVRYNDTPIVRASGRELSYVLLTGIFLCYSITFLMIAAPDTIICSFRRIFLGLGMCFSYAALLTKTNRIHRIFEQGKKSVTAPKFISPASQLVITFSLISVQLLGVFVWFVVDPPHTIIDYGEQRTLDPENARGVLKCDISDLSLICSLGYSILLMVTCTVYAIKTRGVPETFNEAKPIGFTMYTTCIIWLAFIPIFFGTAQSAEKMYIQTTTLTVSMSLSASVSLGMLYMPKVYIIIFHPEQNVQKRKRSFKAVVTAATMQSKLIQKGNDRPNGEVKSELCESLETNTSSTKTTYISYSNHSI
`O=C(/C=C/Nc1cccc(F)c1)c1ccco1` showed a z-score of -0.353. `CCCn1nnc(NC(=O)Cc2ccccc2)n1` was tested, and the z-score was 0.0335. Molecule `O=C1CC(N2CCSCC2)C(=O)N1CCc1ccccc1` (configuration not stated) has a z-score of -0.109. `CCOC(=O)CC1C(=O)NCCN1S(=O)(=O)c1cc(Cl)c(Cl)cc1Cl` (configuration not stated) was tested, and the z-score was 0.372. For `Cc1ccc(NC2=C(CC(=O)O)C(c3ccccc3)N(c3ccc(C)cc3)C2=O)cc1` (configuration not stated), the z-score was -0.426. For `Cc1nc2nc(-c3ccccc3)[nH]n2c(=O)c1C`, the z-score was -0.392. With `C=CCNC(=S)N1CCN(c2ccc([N+](=O)[O-])cc2)CC1` the z-score was 2.09. Work on `Cn1c(NC(=O)c2cccnc2)nc2ccccc21` yielded a z-score of 1.12. `CC(=O)Nc1cc2c(nc1C)nc(C)n2Cc1ccc(Br)cc1` was tested, and the z-score was 0.526. `CCn1c(SCC(=O)Nc2nc3ccccc3s2)nnc1-c1ccc(OC)cc1` showed a z-score of -0.418. Molecule `CC1CCN(S(=O)(=O)c2ccc3[nH]c(=O)c(=O)[nH]c3c2)CC1` has a z-score of 0.0825. `Cc1cccc(N=C2NC(=O)CS2)c1` gave a z-score of 0.297. `c1cc(-c2noc(CC3CCCCC3)n2)ccn1` gave a z-score of -0.0618. With `COCCCN1CC23C=CC(O2)C(C(=O)OC)C3C1=O` (configuration not stated) the z-score was 0.19. With `Clc1cccc(CSc2nnc(-c3ccccn3)n2Cc2ccco2)c1` the z-score was active: 3.12. `CC(C)(C)c1n[nH]c(=S)n(N)c1=O` gave a z-score of -0.328. In the case of `N#Cc1cn(CCOc2ccc(F)cc2)c2ccccc12`, the z-score is reported as -0.28. Molecule `O=C(COC(=O)c1cccc(S(=O)(=O)NCc2ccccc2)c1)c1ccc2c(c1)OCCO2` has a z-score of -0.271. `Fc1ccc(F)c(CN2CCN(c3ncccn3)CC2)c1` showed a z-score of -0.52. `COC(=O)C1=C(C)NC(=S)N(C(C)=O)C1c1ccccc1` (configuration not stated) gave a z-score of -1.61. `COc1ccc(C(=O)NC(Nc2ccccc2)C(Cl)(Cl)Cl)cc1` (configuration not stated) was tested, and the z-score was -0.177. For `Cn1c(N/N=C2\CCCc3ccccc32)nc2c1c(=O)n(Cc1ccccc1)c(=O)n2C`, the z-score was -0.306. `C=CCNc1nc(Nc2ccc([N+](=O)[O-])cc2)nc(OCC)n1` gave a z-score of -0.211. `COc1ccccc1CC(NC(C)=O)C(=O)N1CCN(C(=O)Nc2ccccc2Cl)CC1` (configuration not stated) showed a z-score of -0.275. With `COc1ccc(Cn2nnnc2C(c2cc3cc(C)cc(C)c3[nH]c2=O)N2CCOCC2)cc1` (configuration not stated) the z-score was 0.309. `Cc1ccc2c(c1)nnn2C1CCN(S(C)(=O)=O)CC1` showed a z-score of -0.0619. With `Cc1cccn2c(=O)c3cc(C(=O)N4CCCc5ccccc54)n(C)c3nc12` the z-score was -0.141. For `O=C1CCSc2cccc3cccc(c23)N1`, the z-score was -1.36. Work on `N/C(=N\c1nc(C(F)(F)F)cc(=O)[nH]1)Nc1ccc(Cl)cc1` yielded a z-score of -0.203. `COc1cccc2[nH]c3c(N4CCC(C(N)=O)CC4)ncnc3c12` showed a z-score of 0.0357. Work on `NC(=O)c1ccccc1NC(=O)/C=C/c1c(Cl)cccc1Cl` yielded a z-score of -0.0879. `CCc1cc(C(=O)NCCN(C)C)cs1` gave a z-score of 0.168. `Cc1ccc(NC(=O)c2ccc(OCC3CCCO3)cc2)c(C)c1` (configuration not stated) was tested, and the z-score was -0.207. `COc1ccc(CNC(=O)/C=C/c2cc([N+](=O)[O-])ccc2OC(F)F)cc1` gave a z-score of -0.527. In the case of `CCNC(=S)N1CCN(CCN=CC2=C(O)CC(c3cccs3)CC2=O)CC1` (configuration not stated), the z-score is reported as -0.239. With `Cc1cccc(CS(=O)(=O)Cc2ccc(C(=O)NCCCN3CCCC3)o2)c1` the z-score was 0.19. `O=C(CCS(=O)(=O)c1ccccc1)Nc1ccc(-c2nc3ccccc3s2)c(O)c1` was tested, and the z-score was -0.367. Molecule `N#Cc1cc2c(nc1SCC(N)=O)CCCCC2` has a z-score of -0.0763. In the case of `O=C(NCCCN1CCC(Cc2ccccc2)CC1)C1CC(=O)N(C2CCCC2)C1` (configuration not stated), the z-score is reported as 0.137. `O=C(NCC1(c2ccccc2)CCCC1)c1cccc(Br)c1` showed a z-score of -0.577. `CSc1nc2ccc(NS(=O)(=O)c3c(Cl)cccc3Cl)cc2s1` showed a z-score of -0.352. `Fc1cccc2sc(Nc3nc4cc5c(cc4s3)OCO5)nc12` was tested, and the z-score was active: 5.54. `CCc1ccccc1OCC(=O)N(CC)CC(=O)NCc1ccc(F)cc1` gave a z-score of -0.108. `c1ccc2c(c1)c1c3n2CCNC3CCC1` (configuration not stated) showed a z-score of 0.738. For `Cc1cc(Nc2ccc(F)cc2)nc(N)n1`, the z-score was -0.23. In the case of `CCc1ccc(S(=O)(=O)N2CC(=O)Nc3ccccc32)cc1`, the z-score is reported as -0.195. `Nc1nc2n(c1C(=O)c1ccccc1)CCC2` showed a z-score of 0.00409. In the case of `Cc1ccc(C)c(OCC(=O)NCC(C)C)c1C`, the z-score is reported as -0.237. In the case of `CCn1cc([N+](=O)[O-])nc1C`, the z-score is reported as -0.182. In the case of `COc1ccccc1C(=O)NC(CCSC)C(=O)NCC(c1ccco1)N(C)C` (configuration not stated), the z-score is reported as 0.912. For `CC12CCC(C(=O)Nc3cccc(NC(=O)C45CCC(C)(C(=O)O4)C5(C)C)n3)(OC1=O)C2(C)C`, the z-score was 0.184. Molecule `CN(C)CCOc1ncnc2c1oc1ccccc12` has a z-score of -0.0266. With `CCOC(=O)/C(=C/C=C/c1ccccc1)NC(=O)c1ccccc1` the z-score was -0.198. `C=CCn1c(SCC(=O)N(CC)CC)nc(O)cc1=O` was tested, and the z-score was 0.412. With `Fc1cccc(F)c1CN1CCN(c2ncccn2)CC1` the z-score was -0.0517. Molecule `Cc1cc(C)n(Cc2ccccc2)c(=O)c1S(=O)(=O)c1ccccc1` has a z-score of 0.054. `CCOP(=O)(OCC)C(NC(=O)Nc1ccc(Cl)cc1)C(N)=O` (configuration not stated) gave a z-score of -0.302. `CCOC(=O)CSc1nc(-c2ccc3c(c2)OCO3)ccc1C#N` gave a z-score of -0.00752. In the case of `CCOC(=O)c1cnc2scnn2c1=O`, the z-score is reported as -0.153. `COc1ccccc1N1CCN(C(=O)CCn2c(=O)[nH]c3ccccc3c2=O)CC1` gave a z-score of -0.352. For `C=CCN(CC=C)C(=S)NC(=O)c1ccc(C)c(Br)c1`, the z-score was active: 15.3. `CN(C)S(=O)(=O)N1CCN(CC(O)COc2ccc3cc(Br)ccc3c2)CC1` (configuration not stated) gave a z-score of 0.146. Molecule `Cc1cc(C(=O)OCC(=O)NC2CCS(=O)(=O)C2)c(C)n1-c1ccccc1` (configuration not stated) has a z-score of -0.776. `O=C(N/N=C/c1cn(-c2ccccc2)nc1-c1cccs1)c1ccncc1` gave a z-score of 0.323. For `COCc1[nH]nc2c1C(c1sccc1C)C(C#N)=C(N)O2` (configuration not stated), the z-score was -0.751. With `N=C1S/C(=C\c2ccccc2)C(=O)N1c1ccc(F)cc1` the z-score was 0.0891. Work on `COc1ccc(CCNS(=O)(=O)c2ccc3c(c2)OCCO3)cc1OC` yielded a z-score of 0.185. For `CCOC(=O)C(NCc1ccco1)(NC(=O)c1ccc(OC)cc1)C(F)(F)F` (configuration not stated), the z-score was -0.102. `O=C(CSc1nc2c(sc3ccccc32)c(=O)n1CCCN1CCOCC1)NC1CCCC1` was tested, and the z-score was -0.172. `CC1CN(C2CCCCC2)c2nc3c(c(=O)[nH]c(=O)n3C)n2C1` (configuration not stated) gave a z-score of -0.343. Molecule `CC(C)NC(=O)/C(=C/c1cn(-c2ccccc2)nc1-c1cccc([N+](=O)[O-])c1)NC(=O)c1ccccc1` has a z-score of -0.769. With `O=C(COC(=O)[C@@H]1CC(O)CN1S(=O)(=O)c1ccccc1[N+](=O)[O-])Nc1ccc2ccccc2c1` (some centres not stated) the z-score was 0.813. For `Cc1cc(/C=C2/NC(=O)NC2=O)c(C)n1-c1ccccn1`, the z-score was -0.389. `O=C(CCN1CCN(CC(=O)Nc2ccccc2Cl)CC1)Nc1ccccc1F` was tested, and the z-score was -0.181. `CCCCOc1ncnc2c1[nH]c1ccc(OC)cc12` gave a z-score of 0.111. Molecule `O=C(Cc1ccccc1F)Nc1cccc2cccnc12` has a z-score of -0.168. In the case of `CCN(CC)S(=O)(=O)c1cccc(C(=O)N[C@H](C(=O)O)C(C)C)c1`, the z-score is reported as -0.173. In the case of `N=c1c2c(ncn1Cc1ccco1)Oc1c(ccc3ccccc13)C2c1ccccc1` (configuration not stated), the z-score is reported as 0.538. With `CCOC(=O)Cn1c(=O)oc2cc(S(=O)(=O)NC(C)c3ccccc3)ccc21` (configuration not stated) the z-score was 0.114. Molecule `CCOC(=O)Cn1c(=O)c2c(nc(Br)n2Cc2ccccc2Cl)n(C)c1=O` has a z-score of -0.225. In the case of `COc1ccc(C2C3=C(CC(C)(C)CC3=O)OC(N)=C2[N+](=O)[O-])cc1` (configuration not stated), the z-score is reported as -0.21. Work on `CCOc1ccc(N(C)S(=O)(=O)c2ccc3[nH]cc(C(=O)NCC4CCCO4)c(=O)c3c2)cc1` (configuration not stated) yielded a z-score of -0.352. In the case of `COc1ccc(/C=C/C(=O)N/C(=C\c2ccco2)C(=O)NCCc2nc3ccccc3[nH]2)cc1`, the z-score is reported as -0.806. Molecule `CCOC(=O)N/N=C(\C)c1ccc(C)c([N+](=O)[O-])c1` has a z-score of -0.144. `COc1ccc([N+](=O)[O-])cc1NC(=O)CCc1ccccc1` showed a z-score of -0.451. Work on `COC(=O)c1ccc(CSc2n[nH]c(=S)s2)o1` yielded a z-score of -0.155. With `Cc1ccc2oc(=O)n(CC(=O)O)c2c1` the z-score was 0.169. `CC(C)CCn1c(SCCc2ccccc2)nc2c1c(=O)[nH]c(=O)n2C` gave a z-score of -0.0965. Work on `O=C(CCC(=O)N(c1cccc(F)c1)C(C(=O)NC1CCCC1)c1ccncc1)Nc1cccnc1` (configuration not stated) yielded a z-score of -0.0961. `Cc1noc(NS(=O)(=O)c2ccc(N/C=C/C(=O)c3ccncc3)cc2)c1C` was tested, and the z-score was -0.141. `COC(=O)CN1CCN(C(=O)c2ccc(F)cc2)c2ccccc2C1` showed a z-score of 0.137. `Cc1ccc(Sc2c(C)[nH]n(C(C)(C)C)c2=O)cc1` showed a z-score of 0.791. `CCOc1ccc(Br)cc1C1C(C(=O)OC)=C(N)Oc2cc(N(C)C)ccc21` (configuration not stated) showed a z-score of -0.111. Molecule `O=c1c(CN2CCN(c3ccccn3)CC2)coc2ccccc12` has a z-score of -0.00518. In the case of `O=C(c1ccccc1)C(C(=O)N1CCc2ccccc2C1)n1ccccc1=O` (configuration not stated), the z-score is reported as 0.0663. Molecule `Cc1nc2ccccc2c2nc3ccccc3n12` has a z-score of -0.583. `Cc1cccc(C)c1NC(=O)C(c1ccccc1)N1CCOCC1` (configuration not stated) showed a z-score of -0.108. `Cc1[nH]nc(-c2ccc(O)c(C)c2O)c1-c1cnn(-c2ccccc2)c1` gave a z-score of -2.01. With `CC1CCC2(CC1)SCC(=O)N2c1ccccc1` (configuration not stated) the z-score was 0.0047. Work on `CCCOc1cccc(C(=O)N(Cc2ccc(OC)c(OC)c2)C2CCS(=O)(=O)C2)c1` (configuration not stated) yielded a z-score of -0.254. For `Cc1ccc(C(=O)Nc2ccc(F)cc2)o1`, the z-score was -0.42. For `COc1ccc(C(=O)NCc2cn3ccsc3n2)cc1OC`, the z-score was -0.547. `CC1(C)Cc2ccccc2C(NNC(=O)c2ccccn2)=N1` was tested, and the z-score was 0.524. `O=C(Cn1cnc2c(nnn2-c2ccc(F)cc2)c1=O)NCC1CCCO1` (configuration not stated) gave a z-score of 0.462. `CCNc1ccc2c(Cl)cc(=O)oc2c1` gave a z-score of 0.629. In the case of `CCOC(=O)C1(C(F)(F)F)N=C(c2cccnc2)OC(N2CCOCC2)=N1` (configuration not stated), the z-score is reported as 0.0727. `Cc1ccc(SC(C)C(=O)NCc2cccnc2)cc1` (configuration not stated) was tested, and the z-score was -0.913. Molecule `COCCNC(=O)C(c1ccc(F)cc1)N(Cc1ccco1)C(=O)CCC(=O)Nc1nccs1` (configuration not stated) has a z-score of 0.583. With `COc1cc(C(=O)COC(=O)CNC(=O)C2CCCCC2)cc(OC)c1OC` the z-score was 0.302. `CCOc1ncccc1C(=O)OCC(=O)Nc1cccc(C(C)=O)c1` showed a z-score of -0.737. With `COc1cc2oc(=O)c(Br)c(C)c2c(OC)c1OC` the z-score was 0.0377. `Cc1ccc2oc(=O)c3cnn(CC(=O)N4CCN(c5ccccc5)CC4)c3c2c1` showed a z-score of -0.394.

From PubChem BioAssay AID488969 (Vanderbilt High Throughput Screening Facility, 2010)
